Test results as given in the supplement of paper PMC8728848.
The other results are listed elsewhere or left out.

Tests used:
Experiment in all cases: glycan array binding signal (z-score within array); higher = stronger binding
Conditions in all cases: glycan notation: IUPAC condensed, linker removed
[1] = target: Fuc(a1-2)Gal6S(b1-3)GlcNAc6S
Summary of the method: (§1)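 Arrays were curated from the Consortium for Functional Glycomics database, 3228 in total, and kept only where the protein sequence was available. Binding is expressed as a within-array Z-score. This score was averaged across arrays of the same protein sequence at different concentrations or buffers and across linkers, and negative values can be read as non-binding.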

[2] = target: Fuc(a1-2)Gal6S(b1-4)Glc
Summary of the method: as §1

[3] = target: Fuc(a1-2)Gal6S(b1-4)Glc6S
Summary of the method: as §1

[4] = target: Fuc(a1-2)[Gal(a1-3)]Gal
Summary of the method: as §1

[5] = target: Fuc(a1-2)[Gal(a1-3)]Gal(b1-3)GalNAc
Summary of the method: as §1

[6] = target: Fuc(a1-2)[Gal(a1-3)]Gal(b1-3)GalNAc(b1-3)Gal(a1-4)Gal(b1-4)Glc
Summary of the method: as §1

[7] = target: Fuc(a1-2)[Gal(a1-3)]Gal(b1-3)GlcNAc
Summary of the method: as §1

[8] = target: Fuc(a1-2)[Gal(a1-3)]Gal(b1-3)GlcNAc(b1-2)Man(a1-3)[Fuc(a1-2)[Gal(a1-3)]Gal(b1-3)GlcNAc(b1-2)Man(a1-6)]Man(b1-4)GlcNAc(b1-4)GlcNAc
Summary of the method: as §1

[9] = target: Fuc(a1-2)[Gal(a1-3)]Gal(b1-3)GlcNAc(b1-2)Man(a1-3)[Fuc(a1-2)[Gal(a1-3)]Gal(b1-3)GlcNAc(b1-2)Man(a1-6)]Man(b1-4)GlcNAc(b1-4)[Fuc(a1-6)]GlcNAc
Summary of the method: as §1

[10] = target: Fuc(a1-2)[Gal(a1-3)]Gal(b1-3)GlcNAc(b1-3)GalNAc
Summary of the method: as §1

[11] = target: Fuc(a1-2)[Gal(a1-3)]Gal(b1-3)GlcNAc(b1-6)GalNAc
Summary of the method: as §1

[12] = target: Fuc(a1-2)[Gal(a1-3)]Gal(b1-4)Glc
Summary of the method: as §1

[13] = target: Fuc(a1-2)[Gal(a1-3)]Gal(b1-4)GlcNAc
Summary of the method: as §1

[14] = target: Fuc(a1-2)[Gal(a1-3)]Gal(b1-4)GlcNAc(b1-2)Man
Summary of the method: as §1

[15] = target: Fuc(a1-2)[Gal(a1-3)]Gal(b1-4)GlcNAc(b1-2)Man(a1-3)[Fuc(a1-2)[Gal(a1-3)]Gal(b1-4)GlcNAc(b1-2)Man(a1-6)]Man(b1-4)GlcNAc(b1-4)GlcNAc
Summary of the method: as §1

[16] = target: Fuc(a1-2)[Gal(a1-3)]Gal(b1-4)GlcNAc(b1-2)Man(a1-3)[Fuc(a1-2)[Gal(a1-3)]Gal(b1-4)GlcNAc(b1-2)Man(a1-6)]Man(b1-4)GlcNAc(b1-4)[Fuc(a1-6)]GlcNAc
Summary of the method: as §1

[17] = target: Fuc(a1-2)[Gal(a1-3)]Gal(b1-4)GlcNAc(b1-3)GalNAc
Summary of the method: as §1

[18] = target: Fuc(a1-2)[Gal(a1-3)]Gal(b1-4)GlcNAc(b1-3)[Fuc(a1-2)[Gal(a1-3)]Gal(b1-4)GlcNAc(b1-6)]GalNAc
Summary of the method: as §1

[19] = target: Fuc(a1-2)[Gal(a1-3)]Gal(b1-4)GlcNAc(b1-6)GalNAc
Summary of the method: as §1

[20] = target: Fuc(a1-2)[Gal(a1-3)]Gal(b1-4)[Fuc(a1-3)]Glc
Summary of the method: as §1

[21] = target: Fuc(a1-2)[Gal(a1-3)]Gal(b1-4)[Fuc(a1-3)]GlcNAc
Summary of the method: as §1

[22] = target: Fuc(a1-2)[Gal(a1-3)]Gal(b1-4)[Fuc(a1-3)]GlcNAc(b1-3)GalNAc
Summary of the method: as §1

[23] = target: Fuc(a1-2)[Gal(a1-4)]Gal(b1-4)GlcNAc
Summary of the method: as §1

[24] = target: Fuc(a1-2)[GalNAc(a1-3)]Gal
Summary of the method: as §1

[25] = target: Fuc(a1-2)[GalNAc(a1-3)]Gal(b1-3)GalNAc(a1-3)[Fuc(a1-2)]Gal(b1-4)GlcNAc
Summary of the method: as §1

[26] = target: Fuc(a1-2)[GalNAc(a1-3)]Gal(b1-3)GalNAc(b1-3)Gal(a1-4)Gal(b1-4)Glc
Summary of the method: as §1

[27] = target: Fuc(a1-2)[GalNAc(a1-3)]Gal(b1-3)GlcNAc
Summary of the method: as §1

[28] = target: Fuc(a1-2)[GalNAc(a1-3)]Gal(b1-3)GlcNAc(b1-2)Man(a1-3)[Fuc(a1-2)[GalNAc(a1-3)]Gal(b1-3)GlcNAc(b1-2)Man(a1-6)]Man(b1-4)GlcNAc(b1-4)GlcNAc
Summary of the method: as §1

[29] = target: Fuc(a1-2)[GalNAc(a1-3)]Gal(b1-3)GlcNAc(b1-2)Man(a1-3)[Fuc(a1-2)[GalNAc(a1-3)]Gal(b1-3)GlcNAc(b1-2)Man(a1-6)]Man(b1-4)GlcNAc(b1-4)[Fuc(a1-6)]GlcNAc
Summary of the method: as §1

[30] = target: Fuc(a1-2)[GalNAc(a1-3)]Gal(b1-3)GlcNAc(b1-3)GalNAc
Summary of the method: as §1

[31] = target: Fuc(a1-2)[GalNAc(a1-3)]Gal(b1-3)GlcNAc(b1-6)GalNAc
Summary of the method: as §1

[32] = target: Fuc(a1-2)[GalNAc(a1-3)]Gal(b1-4)Glc
Summary of the method: as §1

[33] = target: Fuc(a1-2)[GalNAc(a1-3)]Gal(b1-4)GlcNAc
Summary of the method: as §1

[34] = target: Fuc(a1-2)[GalNAc(a1-3)]Gal(b1-4)GlcNAc(b1-2)Man
Summary of the method: as §1

[35] = target: Fuc(a1-2)[GalNAc(a1-3)]Gal(b1-4)GlcNAc(b1-2)Man(a1-3)[Fuc(a1-2)[GalNAc(a1-3)]Gal(b1-4)GlcNAc(b1-2)Man(a1-6)]Man(b1-4)GlcNAc(b1-4)GlcNAc
Summary of the method: as §1

[36] = target: Fuc(a1-2)[GalNAc(a1-3)]Gal(b1-4)GlcNAc(b1-2)Man(a1-3)[Fuc(a1-2)[GalNAc(a1-3)]Gal(b1-4)GlcNAc(b1-2)Man(a1-6)]Man(b1-4)GlcNAc(b1-4)[Fuc(a1-6)]GlcNAc
Summary of the method: as §1

[37] = target: Fuc(a1-2)[GalNAc(a1-3)]Gal(b1-4)GlcNAc(b1-3)Gal(b1-4)GlcNAc
Summary of the method: as §1

[38] = target: Fuc(a1-2)[GalNAc(a1-3)]Gal(b1-4)GlcNAc(b1-3)Gal(b1-4)GlcNAc(b1-3)Gal(b1-4)GlcNAc
Summary of the method: as §1

[39] = target: Fuc(a1-2)[GalNAc(a1-3)]Gal(b1-4)GlcNAc(b1-3)GalNAc
Summary of the method: as §1

[40] = target: Fuc(a1-2)[GalNAc(a1-3)]Gal(b1-4)GlcNAc(b1-3)[Fuc(a1-2)[GalNAc(a1-3)]Gal(b1-4)GlcNAc(b1-6)]GalNAc
Summary of the method: as §1

[41] = target: Fuc(a1-2)[GalNAc(a1-3)]Gal(b1-4)GlcNAc(b1-6)GalNAc
Summary of the method: as §1

[42] = target: Fuc(a1-2)[GalNAc(a1-3)]Gal(b1-4)[Fuc(a1-3)]GlcNAc
Summary of the method: as §1

[43] = target: Fuc(a1-2)[GalNAc(a1-3)]Gal(b1-4)[Fuc(a1-3)]GlcNAc(b1-3)GalNAc
Summary of the method: as §1

[44] = target: Fuc(a1-2)[GalNAc(a1-4)]Gal(b1-4)GlcNAc
Summary of the method: as §1

[45] = target: Fuc(a1-2)[GalNAc(b1-3)]Gal
Summary of the method: as §1

B1: Als3-2 (Candida albicans) (protein)
chain: KTITGVFNSFNSLTWSNAATYNYKGPGTPTWNAVLGWSLDGTSASPGDTFTLNMPCVFKFTTSQTSVDLTAHGVKYATCQFQAGEEFMTFSTLTCTVSNTLTPSIKALGTVTLPLAFNVGGTGSSVDLEDSKCFTAGTNTVTFNDGGKKISINVDFERSNVDPKGYLTD
[1]
  glycan array binding signal (z-score): -0.47
[2]
  glycan array binding signal (z-score): -0.23
[3]
  glycan array binding signal (z-score): -0.311
[4]
  glycan array binding signal (z-score): 0.677
[5]
  glycan array binding signal (z-score): 0.234
[6]
  glycan array binding signal (z-score): 0.038
[7]
  glycan array binding signal (z-score): -0.182
[8]
  glycan array binding signal (z-score): -0.563
[9]
  glycan array binding signal (z-score): -0.485
[10]
  glycan array binding signal (z-score): -0.68
[11]
  glycan array binding signal (z-score): -0.489
[12]
  glycan array binding signal (z-score): -0.338
[13]
  glycan array binding signal (z-score): -0.617
[14]
  glycan array binding signal (z-score): -0.167
[15]
  glycan array binding signal (z-score): 0.294
[16]
  glycan array binding signal (z-score): -0.619
[17]
  glycan array binding signal (z-score): -0.717
[18]
  glycan array binding signal (z-score): -0.51
[19]
  glycan array binding signal (z-score): -0.42
[20]
  glycan array binding signal (z-score): -0.655
[21]
  glycan array binding signal (z-score): -0.289
[22]
  glycan array binding signal (z-score): -0.426
[23]
  glycan array binding signal (z-score): 0.706
[24]
  glycan array binding signal (z-score): -0.387
[25]
  glycan array binding signal (z-score): -0.525
[26]
  glycan array binding signal (z-score): -0.184
[27]
  glycan array binding signal (z-score): -0.507
[28]
  glycan array binding signal (z-score): -0.487
[29]
  glycan array binding signal (z-score): -0.619
[30]
  glycan array binding signal (z-score): -0.233
[31]
  glycan array binding signal (z-score): -0.624
[32]
  glycan array binding signal (z-score): -0.679
[33]
  glycan array binding signal (z-score): -0.711
[34]
  glycan array binding signal (z-score): -0.4
[35]
  glycan array binding signal (z-score): -0.232
[36]
  glycan array binding signal (z-score): -0.622
[37]
  glycan array binding signal (z-score): -0.597
[38]
  glycan array binding signal (z-score): 0.614
[39]
  glycan array binding signal (z-score): -0.444
[40]
  glycan array binding signal (z-score): -0.495
[41]
  glycan array binding signal (z-score): 0.324
[42]
  glycan array binding signal (z-score): -0.465
[43]
  glycan array binding signal (z-score): 2.21
[44]
  glycan array binding signal (z-score): -0.444
[45]
  glycan array binding signal (z-score): -0.226
